Measured values reported in article PMC9911399, “Two distinct binding modes provide the RNA-binding protein RbFox with extraordinary sequence specificity”.
Positions count from the first letter of the chain named. The list shows a part of the results.

T1: RBFOX1 RRM RbFoxmut (Fox-RRM*) (Homo sapiens, UniProt Q9NWB1 109-208, R118D;E147R;N151S;E152T)
T1 sequence: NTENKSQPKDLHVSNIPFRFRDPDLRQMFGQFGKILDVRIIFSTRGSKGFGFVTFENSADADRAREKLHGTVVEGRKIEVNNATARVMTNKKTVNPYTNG

B1: GAUCCGG (DNA:RNA)
RNA: GGGAGACCGGAAUUCAGAUUGUCCGAUCCGGUUAAAUCCCGUCGUAGCCACCA
DNA 1: CAATCTGAATTCCGGTCTCCC
DNA 2: TGGTGGCTACGACGGGATT
B2: UAGGUGG (DNA:RNA)
RNA: B1 RNA with G25U, U27G, C28G, C29U
DNA 1: CAATCTGAATTCCGGTCTCCC
DNA 2: TGGTGGCTACGACGGGATT
B3: GGUGCUA (DNA:RNA)
RNA: B1 RNA with A26G, C28G, G30U, G31A
DNA 1: CAATCTGAATTCCGGTCTCCC
DNA 2: TGGTGGCTACGACGGGATT
B4: GGCUGUG (DNA:RNA)
RNA: B1 RNA with A26G, U27C, C28U, C29G, G30U
DNA 1: CAATCTGAATTCCGGTCTCCC
DNA 2: TGGTGGCTACGACGGGATT
B5: UAUUAGC (DNA:RNA)
RNA: B1 RNA with G25U, C28U, C29A, G31C
DNA 1: CAATCTGAATTCCGGTCTCCC
DNA 2: TGGTGGCTACGACGGGATT
B6: UGAGCAA (DNA:RNA)
RNA: B1 RNA with G25U, A26G, U27A, C28G, G30A, G31A
DNA 1: CAATCTGAATTCCGGTCTCCC
DNA 2: TGGTGGCTACGACGGGATT
B7: UUCUCUU (DNA:RNA)
RNA: B1 RNA with G25U, A26U, U27C, C28U, G30U, G31U
DNA 1: CAATCTGAATTCCGGTCTCCC
DNA 2: TGGTGGCTACGACGGGATT
B8: CCGGCAG (DNA:RNA)
RNA: B1 RNA with G25C, A26C, U27G, C28G, G30A
DNA 1: CAATCTGAATTCCGGTCTCCC
DNA 2: TGGTGGCTACGACGGGATT
B9: UGAUUGU (DNA:RNA)
RNA: B1 RNA with G25U, A26G, U27A, C28U, C29U, G31U
DNA 1: CAATCTGAATTCCGGTCTCCC
DNA 2: TGGTGGCTACGACGGGATT

Target: T1, RBFOX1 RRM RbFoxmut (Fox-RRM*)
Test: EMSA; HiTS-Eq, 1 nM pool, 10 min; buffer printed only for the single-RNA assays: 10 mM Tris pH 7.5, 150 mM NaCl, 3.4 mM EDTA, 0.001% NP-40, 30 C
Conditions: tags: His6 N-terminal (pET28a); label: 5' 32P
How it was run: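 Purified RbFox RRM (wild type or mutant) was equilibrated for 10 min in 50 µL with 1 nM of a 5′-radiolabelled pool of RNA with 7 randomized nucleotides, its flanks annealed to DNA oligonucleotides, across increasing protein concentrations. Free RNA was separated by 8% native PAGE, excised, reverse-transcribed, PCR-barcoded and sequenced on an Illumina HiSeq 2500. Relative association constants came from read-count changes of each variant against the control reaction, normalised to the cognate motif.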

Which binding signal does the source give for B1 here?
The binding signal was 0.06 KA relative to UGCAUGU.

Which binding signal does the source give for B2 here?
The binding signal was 0.083 KA relative to UGCAUGU.

For B3, which binding signal is on record?
The binding signal was 0.0772 KA relative to UGCAUGU.

B4 was tested. Which binding signal did it give?
The binding signal was 0.235 KA relative to UGCAUGU.

With B5 as the binder, how does the binding signal read?
Its binding signal is 0.0989 KA relative to UGCAUGU.

How did the binding signal turn out when B6 was run?
Its binding signal is 0.0622 KA relative to UGCAUGU.

For B7, which binding signal is on record?
Its binding signal is 0.0504 KA relative to UGCAUGU.

With B8 as the binder, how does the binding signal read?
The binding signal was 0.107 KA relative to UGCAUGU.

How did the binding signal turn out when B9 was run?
The binding signal was 0.308 KA relative to UGCAUGU.
